{"source": "PubChem BioAssay AID493208", "about": "(National Center for Advancing Translational Sciences (NCATS), 2011)", "note": "In all, about 44,000 compounds went through this assay and about 340 (0.77%) were called active. Not shown: some 5% with an inconclusive outcome. Calls come from the whole dose curve; as a rule, active = well fitted inhibition curve with a large enough effect; inconclusive = small, poorly fitted or top-dose-only effect; inactive = flat fitted curve, though single readings scatter. The list shows a part of the results. Potency is the fitted concentration of half-maximal effect.", "data": [{"experiment": "Acumen qHTS Assay for Inhibitors of the mTORC1 Signaling Pathway in MEF (Tsc2-/-, p53-/-) Cells: Sytravon; note: nearly all actives have a fitted effect of over 50% in size;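 for activity change, negative = inhibition: plate controls were DMSO for no effect and rapamycin for full effect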", "conditions": "phospho-rpS6 immunofluorescence/PI, 24 h; series mostly up to 38.3 µM; activity change, negative = inhibition: at the top concentration", "in_short": "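Tsc2-/-, p53-/- MEFs (empty-vector stable line) in DMEM + 10% FBS were treated with compounds 24 h at 37 degree Celsius, fixed, and immunostained for phospho-rpS6 (Alexa-488) with propidium iodide counterstain. Laser-scanning cytometry gave % positive cells, normalized against 7.5 nM rapamycin and DMSO.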", "values": [{"smiles": "Cc1cccc(-c2nc(CCNC(=O)Cc3ccccc3)cs2)c1", "activity change, negative = inhibition": "inactive: -3.66%"}, {"smiles": "COc1ccc(CCNC(=O)c2ccc3c(c2)N(Cc2ccc(F)cc2)C(=O)CS3)cc1OC", "activity change, negative = inhibition": "inactive: -4.14%"}, {"smiles": "O=C(COc1ccc(Cl)cc1)Nc1ccc2nc(SCC(=O)N3CCCC3)sc2c1", "activity change, negative = inhibition": "inactive: -4.48%"}, {"smiles": "COc1ccc(OC)c(NC(=O)CSc2ccc(-c3sc(C)nc3C)nn2)c1", "activity change, negative = inhibition": "inactive: -7.5%"}, {"smiles": "Cc1nn(C(=O)c2cccc(Cl)c2)c(C)c1S(=O)(=O)N1CCOCC1", "activity change, negative = inhibition": "inactive: 2.41%"}, {"smiles": "CCn1c(=O)cc(SCC(=O)NCc2ccc(OC)cc2OC)c2ccccc21", "activity change, negative = inhibition": "inactive: -1.23%"}, {"smiles": "CCC(=O)N1CCc2cc(S(=O)(=O)NC(CC(C)C)C(=O)NCCc3ccccc3)ccc21", "note": "(stereo unspecified)", "activity change, negative = inhibition": "inactive: 1.17%"}, {"smiles": "COc1ccc(CCNC(=O)C(=O)NCC(c2ccco2)S(=O)(=O)c2cccs2)cc1OC", "note": "(stereo unspecified)", "activity change, negative = inhibition": "inactive: -2.09%"}, {"smiles": "O=C(c1nc(-c2ccc(Cl)cc2)n2c1CCCCC2)N1CCN(c2ccccc2)CC1", "activity change, negative = inhibition": "inactive: -7.62%"}, {"smiles": "O=C(COc1ccccc1-c1nc(-c2ccccc2)no1)Nc1cccc([N+](=O)[O-])c1", "activity change, negative = inhibition": "inactive: -14.4%"}, {"smiles": "CCOc1ccccc1NC(=O)Cn1c(=O)ccc2cc(S(=O)(=O)N3CCCC3)ccc21", "activity change, negative = inhibition": "inactive: -2.95%"}, {"smiles": "CC(=O)N1CCc2nc3sc(C(=O)Nc4ccc(Cl)cc4F)c(N)c3c(C(F)(F)F)c2C1", "activity change, negative = inhibition": "inactive: -4.47%"}, {"smiles": "CC(Oc1ccccc1)C(=O)Nc1nnc2n1CCS2", "note": "(stereo unspecified)", "activity change, negative = inhibition": "inactive: -5.22%"}, {"smiles": "COc1cc(-c2nc3nc(C)cc(C)n3c2Nc2ccc(Cl)cc2)ccc1O", "activity change, negative = inhibition": "inactive: -18.3%"}, {"smiles": "COC(=O)c1cccc(-n2c(CCC(=O)O)ccc2-c2cccs2)c1", "activity change, negative = inhibition": "inactive: -1.28%"}, {"smiles": "COc1ccc(C(=O)Nc2ccc(-c3nnc4n3CCCCC4)cc2)cc1OC", "activity change, negative = inhibition": "inactive: 1.13%"}, {"smiles": "COc1ccc(Cn2c(C(=O)O)c(CNCc3ccc(C)o3)c3ccc(C)cc32)cc1", "activity change, negative = inhibition": "inactive: -14.6%"}, {"smiles": "O=C(c1cc2ccc3cccnc3c2[nH]1)N1CCN(c2ccccc2)CC1", "activity change, negative = inhibition": "inactive: 4.8%"}, {"smiles": "CC(C)c1nc2ccc(C(=O)NC(C)c3ccccc3)cc2o1", "note": "(stereo unspecified)", "activity change, negative = inhibition": "inactive: -10.6%"}, {"smiles": "O=C(NC1CCCC1)c1ccc(CSc2nc3cccnc3n2Cc2ccc(F)cc2)cc1", "activity change, negative = inhibition": "inactive: -6.14%"}, {"smiles": "CCOC(=O)c1ccc2ncc3c(-c4ccccc4)nn(-c4ccc(F)c(Cl)c4)c3c2c1", "activity change, negative = inhibition": "inactive: -15.7%"}, {"smiles": "CCc1ccccc1N1CC(c2nc3ccccc3n2CCCCOc2ccccc2)CC1=O", "note": "(stereo unspecified)", "activity change, negative = inhibition": "inactive: -2.68%"}, {"smiles": "Oc1ccccc1-c1nc(/C=C/c2ccc(F)cc2)nn1-c1ccccc1", "activity change, negative = inhibition": "inactive: -2.47%"}, {"smiles": "CC(=O)c1ccc(N2CCN(S(=O)(=O)c3ccc4c(c3)C(C)(C)C(=O)N4)CC2)cc1", "activity change, negative = inhibition": "inactive: -9.52%"}, {"smiles": "CCOc1ccc(NC(=O)CSc2ncc3c(n2)-c2ccccc2N(Cc2ccccc2C)S3(=O)=O)cc1", "activity change, negative = inhibition": "inactive: 9.85%"}, {"smiles": "Cc1cc(C(=O)NCc2ccccc2Cl)c2c(C)nn(-c3ccccc3)c2n1", "activity change, negative = inhibition": "inactive: 3.59%"}, {"smiles": "COc1cc(NC(=O)CSc2ncccc2C(=O)OC(C)C)cc(OC)c1", "activity change, negative = inhibition": "inactive: 5.94%"}, {"smiles": "COc1ccc(CCNC(=O)CS(=O)Cc2nc(-c3ccccc3F)oc2C)cc1OC", "note": "(stereo unspecified)", "activity change, negative = inhibition": "inactive: -4.84%"}, {"smiles": "COc1ccc(-c2nc(SCCOc3ccccc3Cl)n3[nH]c(=O)cc3n2)cc1", "activity change, negative = inhibition": "inactive: 6.83%"}, {"smiles": "COc1cccc(CNC(=O)C2CCN(c3nnc(-n4c(C)ccc4C)s3)CC2)c1OC", "activity change, negative = inhibition": "inactive: -7.34%"}, {"smiles": "CCOc1ccc(-c2nc(CSCC(=O)NCc3ccc(Cl)cc3)c(C)o2)cc1", "activity change, negative = inhibition": "inactive: -0.846%"}, {"smiles": "CCN(CC)CCNC(=O)c1ccc2c(=O)n3nc(Nc4ccccc4OC)sc3nc2c1", "activity change, negative = inhibition": "inactive: -0.408%"}, {"smiles": "CC(=O)c1cc2c(cc1N/C(=N/S(=O)(=O)c1ccc(C)cc1)c1ccc(F)cc1)OCO2", "activity change, negative = inhibition": "inactive: 1.95%"}, {"smiles": "CC(C)CCNC(=O)CN1C(=O)CSc2ccc(S(=O)(=O)N3CCCCC3)cc21", "activity change, negative = inhibition": "inactive: 5.96%"}, {"smiles": "Cc1c(C(=O)N2CCN(c3ccccc3)CC2)sc2nc3n(c(=O)c12)CCC3", "activity change, negative = inhibition": "inactive: -0.582%"}, {"smiles": "COc1ccc(CCNC(=O)c2ccc3c(c2)ncn3-c2ccc(C)cc2C)cc1OC", "activity change, negative = inhibition": "inactive: 0%"}, {"smiles": "CCc1ccc(S(=O)(=O)c2nnn3c2nc(NC(C)C)c2sccc23)cc1", "activity change, negative = inhibition": "inactive: -3.2%"}, {"smiles": "Cc1ccc(NC(=O)c2ccc(-n3c(C)nnc3C)cc2)cc1F", "activity change, negative = inhibition": "inactive: -0.0622%"}, {"smiles": "CCOC(=O)c1c(-c2ccc(C)cc2)csc1NC(=O)c1nc(SC(C)C)ncc1Cl", "activity change, negative = inhibition": "inactive: 0.999%"}, {"smiles": "CCc1ccccc1NC(=O)C1CCCN(C(=O)c2cnn(-c3ccccc3)c2-n2cccc2)C1", "note": "(stereo unspecified)", "activity change, negative = inhibition": "inactive: -0.32%"}, {"smiles": "CCCc1nc(SCc2cc(=O)c3ccc(C)c(C)c3[nH]2)n[nH]1", "activity change, negative = inhibition": "inactive: 0%"}, {"smiles": "COc1ccc(S(=O)(=O)N2CCN(Cc3nc4ccc(C)cc4o3)CC2)cc1Cl", "activity change, negative = inhibition": "inactive: -4.01%"}, {"smiles": "CCC(C(=O)NCCc1ccccc1)n1nc(C)n2c(cc3sccc32)c1=O", "note": "(stereo unspecified)", "activity change, negative = inhibition": "inactive: 1.45%"}, {"smiles": "CCOc1ccc(N2CC(NC(=O)c3ccc(S(=O)(=O)N4CCCCC4)cc3)CC2=O)cc1", "note": "(stereo unspecified)", "activity change, negative = inhibition": "inactive: -0.197%"}, {"smiles": "Cc1ccc(-c2cc(C(F)(F)F)n3nc(C(=O)NCC45CC6CC(CC(C6)C4)C5)cc3n2)cc1", "activity change, negative = inhibition": "inactive: -0.101%"}, {"smiles": "CCOc1ccccc1NC(=O)c1c(NC(=O)c2cccc(C)c2)sc2c1CCC2", "activity change, negative = inhibition": "inactive: 3.68%"}, {"smiles": "CCc1cc2c(cc3c(=O)n(CC(=O)NC4CCC(C)CC4)ncn32)s1", "note": "(stereo unspecified)", "activity change, negative = inhibition": "inactive: -7.77%"}, {"smiles": "COc1cc2nc(NCc3ccc(C)cc3)n3nc(-c4ccccc4)nc3c2cc1OC", "activity change, negative = inhibition": "inactive: 2.16%"}, {"smiles": "COc1ccc(Nc2nc(N)c3cc(OC)c(OC)cc3n2)cc1", "Potency": "active: 18.5 µM"}, {"smiles": "CC1CCc2c(sc(NC(=O)C3c4ccccc4Oc4ccccc43)c2C(=O)OC(C)C)C1", "note": "(stereo unspecified)", "activity change, negative = inhibition": "inactive: -3.34%"}, {"smiles": "CCOC(=O)c1scc(-c2ccccc2)c1S(=O)(=O)Nc1cc(Cl)c(OC)cc1OC", "activity change, negative = inhibition": "inactive: -12.3%"}, {"smiles": "COC(=O)c1ccc(CSc2nc3c([nH]c4ccccc43)c(=O)n2-c2ccc(OC)cc2)o1", "activity change, negative = inhibition": "inactive: -5.61%"}, {"smiles": "COc1cccc(CNC(=O)c2nn(-c3ccc(C)cc3)c(=O)c3c2c2ccccc2n3C)c1", "activity change, negative = inhibition": "inactive: 4.14%"}, {"smiles": "COc1ccc(CNC(=O)c2c3c(nc4ccccc24)C(=O)N(C2CCCCC2)C3)cc1", "activity change, negative = inhibition": "inactive: -11.2%"}, {"smiles": "CCOC(=O)c1oc2ccc(S(=O)(=O)n3nc(-c4ccc(Br)cc4)cc3N)cc2c1C", "activity change, negative = inhibition": "inactive: 0.919%"}, {"smiles": "O=C(Cc1ccccc1)NCCc1csc2nc(-c3ccc(Cl)cc3)nn12", "activity change, negative = inhibition": "inactive: 6.05%"}, {"smiles": "COc1ccccc1CNS(=O)(=O)c1ccc2c(c1)NC(=O)CC(=O)N2", "activity change, negative = inhibition": "inactive: 3%"}, {"smiles": "Cc1ccc(-n2nc(C)c3c(C(=O)NCc4ccccc4)cc(C4CC4)nc32)cc1", "activity change, negative = inhibition": "inactive: -2.18%"}, {"smiles": "COc1ccccc1Nc1nn2c(=O)c3ccc(C(=O)N4CCCC(C)C4)cc3nc2s1", "note": "(stereo unspecified)", "activity change, negative = inhibition": "inactive: 9.77%"}, {"smiles": "Cc1ccc(S(=O)(=O)NCc2nc(-c3cccc(C)c3)no2)cc1", "activity change, negative = inhibition": "inactive: -4.97%"}, {"smiles": "COc1ccc(C2CC(=O)N(Cc3cccc(F)c3)c3ccccc3S2)cc1", "note": "(stereo unspecified)", "activity change, negative = inhibition": "inactive: -0.564%"}]}]}
